The record followed here is the antibiotic and cytotoxicity screens of Wong et al. (2023).

This is one part of the list.

One assay has as its system HSkMC. Briefly: cytotoxicity call (relative viability < 0.9). Particulars: 10 µM.
The subject of the next assay is HepG2. The assay can be described thus: cytotoxicity call (relative viability < 0.9). Particulars: 10 µM.
A further assay deals with S. aureus RN4220. The assay can be described thus: growth inhibition call (relative growth <= 0.2). Particulars: 50 µM.

Regarding `NS(=O)(=O)c1ccc(NC(=O)C2CC2)cc1`, the cytotoxicity call in the assay with HSkMC is “inactive”. For the same compound, the cytotoxicity call in the assay with HepG2 was “active”. The growth inhibition call with S. aureus RN4220 is “inactive”.
As for `COc1ccc(S(=O)(=O)N(C)C[C@H]2OCCCC[C@@H](C)Oc3ccc(NC(=O)Nc4cccc5ccccc45)cc3C(=O)N([C@@H](C)CO)C[C@@H]2C)cc1`, the cytotoxicity call in the assay on HSkMC (human skeletal muscle cells) and in the assay with HepG2 was “inactive” each time. For the same compound, the growth inhibition call in the assay on S. aureus RN4220 was “inactive”.
Consider `C[C@@H]1CN([C@H](C)CO)C(=O)Cc2cc(NC(=O)CCN3CCOCC3)ccc2O[C@@H]1CN(C)S(=O)(=O)c1cccs1`, for which the cytotoxicity call with HSkMC and in the assay with HepG2 was “inactive” in each case. The growth inhibition call in the assay on S. aureus RN4220 is “inactive”.
